Out of some 420,000 compounds screened, about 64,000 (15%) were called active. Inconclusive results, whose numbers are uncertain, are shown with a selection of clear calls. The call rests on the fitted dose curve; in most records, active means well fitted inhibition curve with a large enough effect; inconclusive means small, poorly fitted or top-dose-only effect; inactive means flat fitted curve, though single readings scatter. No potency is given beside an inconclusive call; the fits are too rough.
experiment: qHTS for Inhibitors of human tyrosyl-DNA phosphodiesterase 1 (TDP1): qHTS in cells in absence of CPT; conditions: DT40 Tdp1-/- hTDP1 cells, no CPT, ATP luminescence, 48 h; activity change, negative = growth inhibition: at 46.2 µM (top of the series) unless noted; further: nearly all actives have a fitted effect of over 55% in size
Procedure, shortened: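 Readout: luminescence from CellTiter-Glo after 30 min in the dark at RT. Cells: DT40 Tdp1-/- with stable hTDP1, 400/well. Exposure: compounds alone, ≥48 hr, 37 °C.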
On the % scale 0 is the no-effect control and ±100 the full control effect; potency means the concentration at half of the fitted maximal effect; tags describe the fitted curve by direction and shape.

Structure (SMILES)	Potency	activity change, negative = growth inhibition
O=C(c1cc2ccccc2o1)N1CC=C(c2ccccc2)CC1	inconclusive [inhibitor, single point]	
CCC(C)n1c(NC(=O)c2ccccc2)c(C#N)c2nc3ccccc3nc21 (stereo not drawn)	active: 13 µM	
CCN(CC(=O)NCc1cccs1)C(=O)c1ccc(N(C)S(=O)(=O)c2ccc(C)cc2)cc1	inconclusive [inhibitor, single point]	
Cc1cc(NC(=O)CCC(=O)N(CCc2ccccc2)C(C(=O)NC2CCCC2)c2ccco2)no1 (stereo not drawn)	inconclusive [inhibitor, partial curve]	
COc1ccc(OC)c(NC(=O)CN(C)CC(=O)Nc2ccccc2Cl)c1	inconclusive [inhibitor, single point]	
CCOc1ccc(CCNC(=O)C2CCCN(S(=O)(=O)N3CC(C)CC(C)C3)C2)cc1OCC (stereo not drawn)	inconclusive [inhibitor, single point]	
Cc1nc(N2CCC3(CC2)OCCO3)c2nnn(Cc3ccccc3F)c2n1	inconclusive [inhibitor, partial curve]	
COc1cc(C2CC(c3cccnc3)=NN2c2ccc(F)cc2)cc(OC)c1OC (stereo not drawn)	inconclusive [inhibitor, single point]	
CC(CNC(=O)CN1C(=O)c2cccnc2Oc2ccc(Cl)cc21)c1ccccc1 (stereo not drawn)	inconclusive [inhibitor, single point]	
COc1ccc(OC)c(Nc2nc(NCCC(C)C)nc(N)c2[N+](=O)[O-])c1	inconclusive [inhibitor, partial curve]	
Cc1cccc(-n2c(C)nc3cc(C(=O)NCCC4=CCCCC4)ccc32)c1	inconclusive [inhibitor, single point]	
C[C@H]1Cn2cnc(C(=O)N[C@H](C)c3ccccc3)c2C(=O)N1		inactive: -13.3%
O=C(O)CN1C(=O)/C(=C\c2cc(Br)ccc2OCc2ccc([N+](=O)[O-])cc2)SC1=S		inactive: 0.244%
Cc1ccc(/C=C/c2onc(C)c2S(=O)(=O)N2CCC(C(=O)N3CCN(c4ccccc4F)CC3)CC2)cc1	active: 2.59 µM	
CCOc1ccc(S(=O)(=O)N2CCC(C(=O)OC(C)C(=O)N(C)C3CCCCC3)CC2)cc1 (stereo not drawn)		inactive: -6.36%
Cn1cccc1/C=N/NC(=O)c1ccncc1		inactive: -0.709%
O=C(NNS(=O)(=O)c1ccccc1)c1csc(-c2cccnc2)n1	inconclusive [inhibitor, single point]	
CCOC(=O)c1c(NC(=S)NC(=O)/C=C/c2cccs2)sc(C)c1C	inconclusive [inhibitor, single point]	
Cc1cnc(N)c2c(=O)oc3ccccc3c12	inconclusive [inhibitor, single point]	
Cc1ccccc1Cc1c(C)nc2c(C(=O)NCc3ccco3)cnn2c1C	inconclusive [inhibitor, single point]	
COc1ccccc1CNc1cccc(C)n1		inconclusive: -30.8% [inhibitor]
CCCC(=O)Nc1c(-c2ccccc2Cl)c(=O)c2ccccc2n1C		inactive: 7.75%
O=C(COc1ccc(-c2nnco2)cc1)Nc1ccc(F)c(Cl)c1	inconclusive [inhibitor, single point]	

Structure (SMILES)	Potency	activity change, negative = growth inhibition
COC(=O)c1ccc(S(=O)(=O)c2ccc(Cl)cc2)c(N)c1	inconclusive [inhibitor, partial curve, poor fit]	
O=C(Cn1cc(COc2ccc(Cl)c(Cl)c2)nn1)NS(=O)(=O)c1ccccc1OC(F)(F)F		inactive: -11.3%
CCCN(CC1CC1)C(=S)NC(=O)c1ccccc1C		inactive: -21.8%
CCOC(=O)c1c(/N=C/c2cccc(C)c2O)sc2c1CCN(C)C2	inconclusive [inhibitor, partial curve]	
COc1ccc(OCCCn2cccc2/C=C2/C(=N)N3OC(C)=CC3=NC2=O)cc1	inconclusive [inhibitor, partial curve, poor fit]	
COC(=O)C1=C(C)NC(=O)NC1c1ccsc1 (stereo not drawn)		inactive: 5.82%
CCOc1ccccc1CN1CCc2nc(Nc3ccc4c(c3)OCCO4)ncc2C1	inconclusive [inhibitor, single point]	
O=C(NCCc1ccccc1Cl)c1ccc2c(=O)n(-c3ccccc3)c(=O)[nH]c2c1	inconclusive [inhibitor, single point]	
CNC(=O)c1cccc2cccc(Sc3ccccc3C(=O)O)c12		inactive: 7.24%
COc1cccc(C(=O)COc2ccc(NC(=O)c3cccs3)cc2)c1	inconclusive [inhibitor, single point]	
Cc1ccc(C2=N/C(=C\c3ccc(OS(=O)(=O)c4ccc(C)cc4)cc3)C(=O)O2)cc1	inconclusive [inhibitor, single point]	
CCCS(=O)(=O)N1CC(=O)N(c2ccc(C)cc2)C(C)(C(=O)NC2CCCCCC2)C1 (stereo not drawn)	inconclusive [inhibitor, single point]	
O=c1c2ccccc2oc2ccc(-c3ccc4cc[nH]c4c3)cc12	inconclusive [inhibitor, single point]	
COC(=O)CCC(=O)OC1(C)C(=O)C2=CN(CCc3ccccn3)C(c3ccc(OC)cc3)=CC2=C(Br)C1=O (stereo not drawn)	inconclusive [inhibitor, single point]	
O=C(CSc1nc(Nc2ccc(F)cc2)c2ccccc2n1)c1ccc(F)cc1	inconclusive [inhibitor, full curve, poor fit]	
O=[N+]([O-])c1cccc(-c2nn(-c3ccccc3)cc2CO)c1	inconclusive [inhibitor, single point]	
COc1ccc(-c2noc(CCC(=O)Nc3cccnc3)n2)cc1OC	inconclusive [inhibitor, full curve, poor fit]	
O=C(CCc1nnc2ccc(NCc3ccc(Cl)cc3)nn12)NC1CCCCC1	inconclusive [inhibitor, single point]	
COc1cc(Nc2ccccc2Cl)c([N+](=O)[O-])nc1[N+](=O)[O-]	inconclusive [inhibitor, single point]	
Cc1ccc(/C=C2\SC(=S)N(c3cccnc3)C2=O)o1	inconclusive [inhibitor, single point]	
COC(=O)Cc1cc(=O)[nH]c(/N=C(\N)Nc2ccc(C(C)C)cc2)n1	inconclusive [inhibitor, partial curve]	
CC(Nc1cccnc1)=C(C#N)C#N		inactive: 3.17%
CCOC(=O)CC1(NC(=O)c2cc(COc3ccc(F)c(F)c3)on2)CCCCC1	active: 18.4 µM	

Structure (SMILES)	Potency	activity change, negative = growth inhibition
Cc1nn(C)cc1CN(C)S(=O)(=O)c1cccc([N+](=O)[O-])c1	inconclusive [inhibitor, partial curve]	
Cn1nc(NC(=O)C(F)(F)F)c2ncc(-c3ccccc3)nc21	inconclusive [inhibitor, partial curve, poor fit]	
CCc1c(C)c2ccc(OC(C)C(=O)NC(Cc3c[nH]c4ccc(O)cc34)C(=O)O)c(C)c2oc1=O (stereo not drawn)		inactive: -19.7%
CC(NC(=O)c1ccc(C23CC4CC(CC(C4)C2)C3)cc1)C(=O)O (stereo not drawn)		inactive: -27.3%
O=C(COC(=O)Cc1c[nH]c2ccccc12)Nc1ccccc1		inactive: -22.7%
CCCCC(=O)Nc1cccn2ncnc12	inconclusive [inhibitor, single point]	
Cc1ccc(/C=C2\SC(=S)N(CC(=O)Nc3cccnc3)C2=O)cc1		inactive: -10.8%
Cc1ccc(NC(=O)CSc2nc3sc(C)cc3c(=O)n2C)cc1	inconclusive [inhibitor, partial curve]	
Cc1occc1C(=O)N1CCN(c2ccc(Cl)cc2)CC1	inconclusive [inhibitor, single point]	
CCOC(=O)CSc1nnc(NCC(=O)OC)c(=O)[nH]1	inconclusive [inhibitor, full curve, poor fit]	
Cc1ccc(S(=O)(=O)N(Cc2cc3ccc(C)cc3[nH]c2=O)c2ccccc2)cc1	inconclusive [inhibitor, partial curve]	
O=C(CCSc1ccc(Cl)cc1)c1cccs1	active: 2.31 µM	
COc1ccccc1/C=C1/C(=O)N(c2cc(C)cc(C)c2)C(c2cccc([N+](=O)[O-])c2)S1(=O)=O (stereo not drawn)	inconclusive [inhibitor, partial curve]	
CCn1c2ccc(OC)cc2c2nc3ccccc3nc21	active: 11.6 µM	
Cc1ccc(NC(=S)NCCc2ccc(F)cc2)c(C)c1	inconclusive [inhibitor, full curve, poor fit]	
Cc1ccccc1C1CCCN(Cc2nc(C3CC3)no2)C1 (stereo not drawn)	inconclusive [inhibitor, single point]	
Cc1ccc(CNc2ncnc3onc(-c4ccc(F)cc4)c23)cc1	inconclusive [inhibitor, single point]	
CC(=O)c1cccc(NC(=O)CSc2nc(N3CCCCC3)nc(N3CCCCC3)n2)c1	active: 25.9 µM	
Cc1oc2ncn(CC(C)C)c(=O)c2c1C(=O)NC(C)c1ccccc1 (stereo not drawn)	active: 20.6 µM	
COc1ccc(C(=O)CN(C(=O)c2ccc(Cl)cc2)N2C(=O)c3ccccc3C2=O)cc1		inactive: -5.29%
C=CCN1[C@@H](Cc2ccccc2)COc2cc(N3CCSCC3)ccc2S1(=O)=O	inconclusive [inhibitor, single point]	
COc1ccc(/C=C/C(O)=C(\C#N)c2nnc(N3CCOCC3)n2-c2ccccc2)cc1OC	inconclusive [inhibitor, single point]	
